Results published in paper PMC6631257, “A Single Site Population Study to Investigate CYP2D6 Phenotype of Patients with Persistent Non-Malignant Pain” (Medicina, 2019).

What was measured:
[1] = system: patients with persistent non-malignant pain; experiment: Analgesic response to a short course of codeine 30 mg QDS (BPI-sf scores, responder analysis); type: in vivo, human; settings: for % non-response within phenotype: non-response = <30% reduction in pain 'on the average'; for BPI-sf Pain 'on the average', mean ± SD / BPI-sf Pain interference (composite), mean ± SD / BPI-sf Pain severity (composite), mean ± SD: ITT n = 125, codeine 30 mg QDS
[2] = system: patients with persistent non-malignant pain; experiment: Patient Global Impression of Change to Health after codeine; type: in vivo, human
[3] = Mean Day 0–4, p < 0.05 vs pre-codeine

Structure (SMILES): COc1ccc2c3c1O[C@H]1[C@@H](O)C=C[C@H]4[C@@H](C2)N(C)CC[C@@]341 [codeine]
- Codeine Responders (number of participants) ([1]; IM (AS 0.5), of 6): 0
- Codeine non-responders (number of participants) ([1]; IM (AS 0.5), of 6): 6
- % non-response within phenotype ([1]; IM (AS 0.5)): 6 (100%)
- BPI-sf Pain 'on the average', mean ± SD ([1]; End of Day 1): 5.68 ± 2.28
- BPI-sf Pain interference (composite), mean ± SD ([1]; End of Day 1): 5.09 ± 2.58
- BPI-sf Pain severity (composite), mean ± SD ([1]; End of Day 1): 5.67 ± 2.27
- BPI-sf Pain 'on the average', mean ± SD ([1]; End of Day 2): 5.55 ± 2.24
- BPI-sf Pain interference (composite), mean ± SD ([1]; End of Day 2): 4.90 ± 2.59
- BPI-sf Pain severity (composite), mean ± SD ([1]; End of Day 2): 5.54 ± 2.28
- BPI-sf Pain 'on the average', mean ± SD ([1]; End of Day 3): 5.51 ± 2.37
- BPI-sf Pain interference (composite), mean ± SD ([1]; End of Day 3): 4.91 ± 2.66
- BPI-sf Pain severity (composite), mean ± SD ([1]; End of Day 3): 5.57 ± 2.40
- BPI-sf Pain 'on the average', mean ± SD ([1]; End of Day 4): 5.57 ± 2.35
- BPI-sf Pain interference (composite), mean ± SD ([1]; End of Day 4): 4.91 ± 2.73
- BPI-sf Pain severity (composite), mean ± SD ([1]; End of Day 4): 5.62 ± 2.45
- BPI-sf Pain 'on the average', mean ± SD ([1]; End of Dosing Day (Day 0)): 6.00 ± 1.94
- BPI-sf Pain interference (composite), mean ± SD ([1]; End of Dosing Day (Day 0)): 5.31 ± 2.40
- BPI-sf Pain severity (composite), mean ± SD ([1]; End of Dosing Day (Day 0)): 5.93 ± 1.99
- BPI-sf Pain 'on the average', mean ± SD [1, 3]: 5.66 ± 2.11
- BPI-sf Pain interference (composite), mean ± SD [1, 3]: 5.02 ± 2.51
- BPI-sf Pain severity (composite), mean ± SD [1, 3]: 5.67±2.17
- Codeine Responders (number of participants) ([1]; NM (AS 1.0), of 32): 5
- Codeine non-responders (number of participants) ([1]; NM (AS 1.0), of 32): 27
- Codeine Responders (number of participants) ([1]; NM (AS 1.0–2.0)): 26
- Codeine non-responders (number of participants) ([1]; NM (AS 1.0–2.0)): 80
- Codeine Responders (number of participants) ([1]; NM (AS 1.5), of 18): 4
- Codeine non-responders (number of participants) ([1]; NM (AS 1.5), of 18): 14
- Codeine Responders (number of participants) ([1]; NM (AS 2.0), of 56): 17
- Codeine non-responders (number of participants) ([1]; NM (AS 2.0), of 56): 39
- normal metabolisers who responded to codeine ([1]; NM, activity scores 1.0–2.0): 24.5%
- Codeine Responders (number of participants) ([1]; PM (AS 0.0), of 11): 0
- Codeine non-responders (number of participants) ([1]; PM (AS 0.0), of 11): 11
- % non-response within phenotype ([1]; PM (AS 0.0)): 11 (100%)
- Codeine Responders (number of participants) ([1]; UM (>2.0), of 2): 0
- Codeine non-responders (number of participants) ([1]; UM (>2.0), of 2): 2
- % non-response within phenotype ([1]; UM (>2.0)): 2 (100%)
- codeine non-responders (did not achieve reduction of pain of ≥30% from baseline) ([1]; all ITT participants, 99/125, codeine 30 mg QDS): 79%
- codeine non-responders ([1]; females, 58/74): 78%
- codeine non-responders ([1]; males, 41/51): 80%
- codeine response if IM categorised using activity score 0.5–1.0 ([1]; re-categorised IM, AS 0.5–1.0 instead of 0.5): 13%
- codeine response if NM categorised using activity score 1.5–2.0 ([1]; re-categorised NM, AS 1.5–2.0): 28%
- participants reporting improvement on Patient Global Impression of Change ([2]; IMs, 2/6): 33%
- participants reporting improvement on Patient Global Impression of Change ([2]; NMs who did not obtain an analgesic response, 58/80): 73%
- participants reporting improvement on Patient Global Impression of Change ([2]; PMs, 9/11): 82%
- participants reporting improvement on Patient Global Impression of Change ([2]; UMs, 1/2): 50%
- participants reporting improvement on Patient Global Impression of Change ([2]; participants who did not obtain an analgesic response to codeine, 70/99): 71%
- participants reporting improvement on Patient Global Impression of Change ([2]; participants who obtained an analgesic response to codeine, 20/26): 77%
